PMC4336329 (PLoS ONE, 2015)
Among all 310,000 compounds or so, about 2,200 (0.71%) showed an effect of 50% or more. Effects have a minus sign here. The list shows a part of the results.

Target: human ether-à-go-go-related gene (hERG) potassium channel (human, UniProt Q12809)
Assay: primary screen, population patch clamp on CHO cells stably expressing hERG

human ether-à-go-go-related gene (hERG) potassium channel, sequence (Q12809 whole entry, looked up): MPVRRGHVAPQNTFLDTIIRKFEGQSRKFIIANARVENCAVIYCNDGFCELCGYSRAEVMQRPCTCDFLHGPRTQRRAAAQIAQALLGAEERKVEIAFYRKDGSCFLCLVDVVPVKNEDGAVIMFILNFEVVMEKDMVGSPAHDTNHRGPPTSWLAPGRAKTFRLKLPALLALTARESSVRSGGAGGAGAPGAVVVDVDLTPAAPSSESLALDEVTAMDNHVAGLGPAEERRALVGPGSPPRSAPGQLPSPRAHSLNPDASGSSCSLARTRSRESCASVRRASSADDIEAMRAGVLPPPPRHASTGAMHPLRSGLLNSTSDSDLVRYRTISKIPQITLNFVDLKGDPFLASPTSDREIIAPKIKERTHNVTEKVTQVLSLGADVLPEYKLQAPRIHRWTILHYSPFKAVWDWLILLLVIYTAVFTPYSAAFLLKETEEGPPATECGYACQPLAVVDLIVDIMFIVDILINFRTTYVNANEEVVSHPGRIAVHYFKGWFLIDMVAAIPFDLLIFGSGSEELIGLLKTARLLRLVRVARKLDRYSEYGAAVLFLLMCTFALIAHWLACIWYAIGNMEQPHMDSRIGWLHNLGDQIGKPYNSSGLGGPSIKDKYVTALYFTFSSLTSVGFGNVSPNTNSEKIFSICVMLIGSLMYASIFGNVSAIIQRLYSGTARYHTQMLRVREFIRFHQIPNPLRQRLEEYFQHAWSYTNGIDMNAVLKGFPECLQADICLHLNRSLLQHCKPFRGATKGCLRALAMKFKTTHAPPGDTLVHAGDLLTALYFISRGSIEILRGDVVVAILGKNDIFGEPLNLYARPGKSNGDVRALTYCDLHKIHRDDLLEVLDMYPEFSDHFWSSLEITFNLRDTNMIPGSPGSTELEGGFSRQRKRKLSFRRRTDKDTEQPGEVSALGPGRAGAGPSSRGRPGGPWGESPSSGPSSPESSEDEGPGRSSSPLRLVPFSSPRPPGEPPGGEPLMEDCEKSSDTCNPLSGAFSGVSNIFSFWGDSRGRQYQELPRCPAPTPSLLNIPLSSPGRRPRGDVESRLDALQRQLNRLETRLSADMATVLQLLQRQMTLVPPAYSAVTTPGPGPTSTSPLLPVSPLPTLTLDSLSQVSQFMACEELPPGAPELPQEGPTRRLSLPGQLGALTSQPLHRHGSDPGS

How did the “hERG current change (%, negative = inhibition) at 1uM” value turn out when `Cc1cc(N2CCOCC2)nc(C(C)C)n1` was run?
Its value is 9.4%.

Which “hERG current change (%, negative = inhibition) at 1uM” value does the source give for `[N-]=[N+]=NC1c2ccccc2C(=O)N1Cc1ccccc1` (centres unmarked) here?
The value was 17.3%.

`COc1ccc(Cn2c(=S)[nH]c3cc(C(=O)NCCCN4CCOCC4)ccc3c2=O)cc1` was tested. Which “hERG current change (%, negative = inhibition) at 1uM” value did it give?
Its value is 18.9%.

How did the “hERG current change (%, negative = inhibition) at 1uM” value turn out when `NC(=O)c1ccc(NC(=O)CSc2nnc(-c3ccncc3)n2Cc2ccco2)cc1` was run?
Its value is 4.1%.

`C=CCn1c(NC(=O)c2ccc(Br)o2)c(C(=O)OCC)sc1=S` was tested. Which “hERG current change (%, negative = inhibition) at 1uM” value did it give?
The value was 24.5%.

`COCc1c(C(=O)Nc2nc(C)cs2)oc2ccccc12` was tested. Which “hERG current change (%, negative = inhibition) at 1uM” value did it give?
The value was -5.72%.

`C=CCOc1ccc(C2NC(=O)NC(C)=C2C(=O)OC)cc1` (centres unmarked) was tested. Which “hERG current change (%, negative = inhibition) at 1uM” value did it give?
The value was -1.55%.

How did the “hERG current change (%, negative = inhibition) at 1uM” value turn out when `O=C(O)C1CCCN(S(=O)(=O)c2cccs2)C1` (centres unmarked) was run?
Its value is 3.47%.

`NS(=O)(=O)c1ccc(NC(=O)CN2CCN(S(=O)(=O)/C=C/c3ccccc3)CC2)cc1` was tested. Which “hERG current change (%, negative = inhibition) at 1uM” value did it give?
Its value is 1.05%.

Which “hERG current change (%, negative = inhibition) at 1uM” value does the source give for `O=C(COC(=O)c1cccc(Cl)c1)Nc1cc(Cl)ccc1Oc1ccccc1` here?
The value was 14.1%.

With `CCCCn1c(N)c(N(CC(C)C)C(=O)Cc2ccc3c(c2)OCCO3)c(=O)[nH]c1=O` as the molecule, how does the “hERG current change (%, negative = inhibition) at 1uM” value read?
The value was 9.47%.

`CC(C)OCCCNc1ncnc2c1nc1n2CCCC1` was tested. Which “hERG current change (%, negative = inhibition) at 1uM” value did it give?
Its value is 4%.

With `NC(=O)CSc1nc(-c2ccccc2)nc2ccccc12` as the molecule, how does the “hERG current change (%, negative = inhibition) at 1uM” value read?
The value was 11.2%.

`Cc1ccccc1C(=O)NC(=S)Nc1ccc2[nH]c(=O)[nH]c2c1` was tested. Which “hERG current change (%, negative = inhibition) at 1uM” value did it give?
The value was 4.06%.

For `Cc1cc2c3c([nH]c2cc1S(=O)(=O)NCc1ccc(CN2CCCCCC2)o1)CCCC3=O`, which “hERG current change (%, negative = inhibition) at 1uM” value is on record?
The value was -1.58%.

For `O=C(NCC1CCCO1)c1cc2c(s1)CCC2` (centres unmarked), which “hERG current change (%, negative = inhibition) at 1uM” value is on record?
The value was 19.4%.

Which “hERG current change (%, negative = inhibition) at 1uM” value does the source give for `CCc1ccc(N2C(=O)NC(=O)/C(=C\C=C\c3ccco3)C2=O)cc1` here?
Its value is 11.4%.

`Cc1nn(C)c(NC(=O)c2ccccc2Cl)c1Br` was tested. Which “hERG current change (%, negative = inhibition) at 1uM” value did it give?
Its value is 10.8%.

How did the “hERG current change (%, negative = inhibition) at 1uM” value turn out when `N#Cc1cnc(N)c(Br)c1` was run?
The value was 12.3%.

`Cc1ccc(C)c2[nH]c(=O)c(CCNS(=O)(=O)c3ccccc3)cc12` was tested. Which “hERG current change (%, negative = inhibition) at 1uM” value did it give?
Its value is 5.38%.

`CCCCN(C(=O)C1CC(=O)N(Cc2ccc(C)cc2)C1)c1c(N)n(CCCC)c(=O)[nH]c1=O` (centres unmarked) was tested. Which “hERG current change (%, negative = inhibition) at 1uM” value did it give?
Its value is 14.1%.

How did the “hERG current change (%, negative = inhibition) at 1uM” value turn out when `O=C(CSc1nc2ccccc2c(=O)n1Cc1ccco1)Nc1cccc(O)c1` was run?
Its value is 5.35%.

For `COC(=O)C(C)n1cnc2c(nnn2Cc2ccc(Cl)cc2)c1=O` (centres unmarked), which “hERG current change (%, negative = inhibition) at 1uM” value is on record?
The value was -1.32%.

With `Cc1nc2ccc(S(=O)(=O)NC(C(=O)N3CCCC3)C(C)C)cc2s1` (centres unmarked) as the molecule, how does the “hERG current change (%, negative = inhibition) at 1uM” value read?
Its value is 10.8%.

`O=[N+]([O-])c1cc(C=Nc2ccc3ccccc3c2)ccc1Br` was tested. Which “hERG current change (%, negative = inhibition) at 1uM” value did it give?
The value was 11.6%.

`Cc1cc(C)n(C(=O)c2ccc([N+](=O)[O-])c(Cl)c2)n1` was tested. Which “hERG current change (%, negative = inhibition) at 1uM” value did it give?
Its value is 13%.

How did the “hERG current change (%, negative = inhibition) at 1uM” value turn out when `Cc1ccc(S(=O)(=O)N(C)c2ccc(C(=O)N3CCc4ccccc4C3)cc2)cc1` was run?
Its value is 7.74%.

`CCn1nccc1C(=O)Nc1ccc(Cl)cn1` was tested. Which “hERG current change (%, negative = inhibition) at 1uM” value did it give?
The value was 11%.

How did the “hERG current change (%, negative = inhibition) at 1uM” value turn out when `O=C(OCn1nnc2ccccc2c1=O)c1ccc2c(=O)n3c(nc2c1)CCC3` was run?
Its value is 4.92%.

With `Clc1nc(-c2ccccc2)c2ccccc2n1` as the molecule, how does the “hERG current change (%, negative = inhibition) at 1uM” value read?
Its value is 12.6%.

`CCCCNC(=S)NNC(=O)c1sccc1C` was tested. Which “hERG current change (%, negative = inhibition) at 1uM” value did it give?
The value was 1.63%.

With `O=C(NCc1ccc2c(c1)OCO2)C(=O)NCC1OCCN1S(=O)(=O)c1ccc(F)cc1` (centres unmarked) as the molecule, how does the “hERG current change (%, negative = inhibition) at 1uM” value read?
The value was 4.42%.

Which “hERG current change (%, negative = inhibition) at 1uM” value does the source give for `CCOC(=O)c1cc2c(ccn2C)n1CC(=O)N1CCCC(C)C1` (centres unmarked) here?
Its value is 3.59%.

How did the “hERG current change (%, negative = inhibition) at 1uM” value turn out when `CCCCN1C(=O)/C(=C2/Sc3ccc(Cl)cc3N2CC)SC1=S` was run?
Its value is 13.4%.

With `Nc1cc(C(=O)OCC(=O)NCc2ccco2)ccc1Cl` as the molecule, how does the “hERG current change (%, negative = inhibition) at 1uM” value read?
Its value is 7.2%.

`O=C(C[n+]1ccccc1)Nc1ccc(Oc2ccccc2)cc1.[Cl-]` was tested. Which “hERG current change (%, negative = inhibition) at 1uM” value did it give?
Its value is 11.7%.

How did the “hERG current change (%, negative = inhibition) at 1uM” value turn out when `NC(=O)Nc1cccc(C(F)(F)F)c1` was run?
Its value is 9.97%.

For `C#CCCOC(=O)N1C2=NC(C(=O)OC)=C(C(=O)OC)[C@@H]3N(C)c4ccc(OC)cc4[C@]23C[C@H]1C(=O)OC`, which “hERG current change (%, negative = inhibition) at 1uM” value is on record?
Its value is -0.338%.

How did the “hERG current change (%, negative = inhibition) at 1uM” value turn out when `Cn1c(C2CCCN2C(=O)OC(C)(C)C)n[nH]c1=S` (centres unmarked) was run?
Its value is 7.14%.

`CC(=O)Nc1cccc(NC(=O)CSc2nnnn2Cc2ccccc2)c1` was tested. Which “hERG current change (%, negative = inhibition) at 1uM” value did it give?
The value was 4.42%.

Which “hERG current change (%, negative = inhibition) at 1uM” value does the source give for `CCOc1ccc(N(CC(=O)NCc2ccccc2)C(=O)CCC(=O)Nc2nccs2)cc1` here?
The value was -2.78%.

With `COc1ccc(C2SCC(=O)N2c2ccc(OC)cc2)cc1` (centres unmarked) as the molecule, how does the “hERG current change (%, negative = inhibition) at 1uM” value read?
Its value is 13.5%.

How did the “hERG current change (%, negative = inhibition) at 1uM” value turn out when `CC(C)(C)c1ccc(Oc2ccc(NC(=O)c3ccccc3C(=O)O)cn2)cc1` was run?
The value was 10.8%.

How did the “hERG current change (%, negative = inhibition) at 1uM” value turn out when `O=C(c1ccc(F)c(F)c1)N1CCC2(CC1)NCCc1[nH]cnc12` was run?
Its value is 16%.
